Experimental data as given in article PMC4336329 (PLoS ONE, 2015).
In all, about 310,000 compounds went through this assay and about 2,200 (0.71%) showed an effect of 50% or more. Effects have a minus sign here. The list shows a part of the results.

Target: human ether-à-go-go-related gene (hERG) potassium channel (human, UniProt Q12809)
Experiment: primary screen, population patch clamp on CHO cells stably expressing hERG

human ether-à-go-go-related gene (hERG) potassium channel, sequence (Q12809 whole entry, looked up): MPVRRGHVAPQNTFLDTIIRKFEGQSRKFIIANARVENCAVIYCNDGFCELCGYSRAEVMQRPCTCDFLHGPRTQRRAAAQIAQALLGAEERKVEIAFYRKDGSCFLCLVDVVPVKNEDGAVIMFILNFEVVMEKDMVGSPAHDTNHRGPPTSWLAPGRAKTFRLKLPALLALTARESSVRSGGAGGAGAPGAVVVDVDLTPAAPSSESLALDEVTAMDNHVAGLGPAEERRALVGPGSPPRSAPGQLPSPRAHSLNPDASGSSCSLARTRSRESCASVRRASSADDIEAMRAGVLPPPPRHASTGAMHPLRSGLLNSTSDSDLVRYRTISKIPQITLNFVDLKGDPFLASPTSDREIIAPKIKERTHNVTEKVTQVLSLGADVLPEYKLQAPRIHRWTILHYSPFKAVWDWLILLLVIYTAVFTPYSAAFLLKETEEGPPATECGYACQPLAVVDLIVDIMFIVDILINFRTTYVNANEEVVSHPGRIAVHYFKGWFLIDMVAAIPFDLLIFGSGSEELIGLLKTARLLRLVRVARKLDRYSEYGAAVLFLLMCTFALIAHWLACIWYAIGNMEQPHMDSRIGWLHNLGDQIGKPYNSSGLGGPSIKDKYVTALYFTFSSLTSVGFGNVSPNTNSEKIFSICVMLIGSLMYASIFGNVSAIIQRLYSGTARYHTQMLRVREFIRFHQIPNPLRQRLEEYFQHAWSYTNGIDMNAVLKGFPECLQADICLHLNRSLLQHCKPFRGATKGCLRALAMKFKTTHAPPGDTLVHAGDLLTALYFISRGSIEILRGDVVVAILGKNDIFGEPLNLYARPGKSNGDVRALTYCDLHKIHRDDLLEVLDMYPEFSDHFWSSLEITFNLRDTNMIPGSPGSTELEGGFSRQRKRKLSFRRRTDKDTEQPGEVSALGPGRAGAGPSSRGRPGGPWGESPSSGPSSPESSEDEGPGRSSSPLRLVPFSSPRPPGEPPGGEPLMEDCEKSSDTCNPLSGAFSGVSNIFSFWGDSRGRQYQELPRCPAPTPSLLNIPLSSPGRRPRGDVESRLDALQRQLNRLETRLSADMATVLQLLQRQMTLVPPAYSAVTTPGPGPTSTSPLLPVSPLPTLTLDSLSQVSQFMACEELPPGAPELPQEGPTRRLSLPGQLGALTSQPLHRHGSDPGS

Row | Compound | hERG current change (%, negative = inhibition) at 1uM [%]
1 | Cc1cc(C)nc(SCCC(=O)N(C)C)n1 | 11
2 | COC(=O)c1ccccc1NC(=O)c1cc(-c2cccs2)on1 | 4.24
3 | Fc1ccccc1C1c2cccn2CCN1C(=S)Nc1cccc(Br)c1 (stereo not drawn) | 1.92
4 | Cc1ccc(S(=O)(=O)c2nc(-c3ccccc3Cl)oc2NCCCN2CCOCC2)cc1 | 4.2
5 | C=CCNC(=S)NNC(=O)c1ccc(=O)n(Cc2ccccc2)c1 | 20.9
6 | Cl.OCCNCC1(O)C2CC3CC(C2)CC1C3 (stereo not drawn) | 12.1
7 | CCC(=O)NC(=S)Nc1cccc(NC(=O)c2ccccc2)c1 | 13.8
8 | CC(NC(=O)c1ccncc1)c1ccc(Br)cc1 (stereo not drawn) | 5.94
9 | CC(C)CC1NC(=S)N(Cc2ccccc2)C1=O (stereo not drawn) | 1.75
10 | N#CCSc1nc(N)c(C#N)c(C2CCCCC2)c1C#N | 10
11 | Cl.Cn1ccc2cc(NC(=O)Nc3cccnc3)ccc21.O | 8.01
12 | N#CCSc1ccc(-c2nc3ccccc3[nH]2)cn1 | -0.0982
13 | O=C(NC1CCCC1)c1cc(S(=O)(=O)N2CCOCC2)c(Cl)cc1Cl | 4
14 | COc1ccc(S(=O)(=O)N2CCOCC2)cc1NC(=O)c1cc(=O)[nH]c2ccccc12 | 14.9
15 | Cc1ccc(C(c2cc(Cl)c3cccnc3c2O)N2CCN(C)CC2)cc1 (stereo not drawn) | 4.22
16 | c1ccc2nc3[nH]cnc3nc2c1 | 5.74
17 | CC1=Nc2ccccc2N=C(N)C1c1ccccc1 (stereo not drawn) | 15.4
18 | COC(=O)Cn1cc(C(=O)OC)c2ccccc21 | 4.33
19 | Cc1onc(-c2ccccc2Cl)c1C(=O)NNC(=O)c1ccc(F)cc1 | 10.3
20 | COc1ccc2c(c1)/C(=N/OC(=O)c1cccs1)CCC2 | 2.62
21 | CN(CC(=O)Nc1c(Cl)cccc1Cl)C(=O)c1ccc(-n2cncn2)c([N+](=O)[O-])c1 | 16.3
22 | O=C(OCC1CC(c2ccccc2)=NO1)c1ccco1 (stereo not drawn) | 13.5
23 | CCCCOP(=O)(CN1CCOCC1)OCCCC | 11.9

Row | Compound | hERG current change (%, negative = inhibition) at 1uM [%]
24 | CC(=O)N1N=C(c2cccs2)CC1c1cccc([N+](=O)[O-])c1 (stereo not drawn) | -8.37
25 | COc1ccc(Cl)cc1NC(=O)N1CCN(S(C)(=O)=O)CC1 | 4.07
26 | COc1ccccc1C(=O)COC(=O)C1CCN(S(=O)(=O)c2ccc(C)c(C)c2)CC1 | 14.4
27 | CCS(=O)(=O)c1ccc(-c2csc(-c3ccccc3Cl)n2)c(Cl)c1Cl | 1.61
28 | COc1cc(CCC(=O)Nc2ncc(C)s2)cc(OC)c1OC | 9.63
29 | O=C1NC(=O)/C(=C\c2ccccc2OCc2ccc([N+](=O)[O-])cc2)N1 | 9.76
30 | CCOc1ccc2nc(NC(=O)C(NS(=O)(=O)c3cccc4nsnc34)C(C)C)sc2c1 (stereo not drawn) | 12.7
31 | Cc1ccccc1OCC(=O)Nc1cccc(Cl)c1C | 14.2
32 | Cc1cccnc1NC(=O)c1nn(C)c2c1CS(=O)(=O)c1ccccc1-2 | 13.1
33 | O=C(OCC(=O)N1CCc2ccccc21)C1CCCN1S(=O)(=O)c1ccc(Cl)cc1 (stereo not drawn) | 5.04
34 | O=C(CNC(=S)N(Cc1ccccc1)Cc1ccccc1F)NCCc1ccc(Cl)cc1 | 3.76
35 | C=CCNC(=S)N1CCOCC1 | 7.43
36 | CCOc1ccc(NC2=NCC(=O)N2CCc2ccccc2)cc1.Cl | 14.9
37 | CCSc1nc(N2CCOCC2)c2c(c1C#N)CC(C)(C)N(C)C2 | 9.53
38 | COCCCNC(=O)Cn1nnc(-c2ccc(NC(=O)c3ccccc3F)cc2)n1 | 3.12
39 | Cc1ccc2[nH]c(=O)c(CN(Cc3nnnn3Cc3ccccc3)C3CCCC3)cc2c1 | 11.9
40 | COc1cccc(-n2c(SCC(=O)NC3CCCC3)nnc2-c2ccco2)c1 | -25.1
41 | Cc1cc(C(=O)Nc2cc(C(C)(C)C)on2)c(C)o1 | 13.9
42 | CC(C)n1c(/N=C/c2ccccc2O)nc2ccccc21 | 12.5
43 | CC1CCc2nc(NC(=O)c3ccc(N4C(=O)CCC4=O)cc3)sc2C1 (stereo not drawn) | 15.6
44 | COc1cccc([C@@H]2CC=C(C(=O)O)[C@H](c3ccccc3F)N2S(=O)(=O)c2ccc(C)cc2)c1 | 7.94
45 | O=C(Nc1nc2ccccc2[nH]1)C1CC(=O)N(c2ccc3c(c2)OCCO3)C1 (stereo not drawn) | 2.97
46 | CCCCN1C(=O)C(=O)N(CC(=O)N2CCN(c3ccccc3)CC2)C1=O | 5.7

Row | Compound | hERG current change (%, negative = inhibition) at 1uM [%]
47 | Cc1ccccc1N(CC(=O)NCc1ccccc1)C(=O)CCC(=O)Nc1nccs1 | 12.5
48 | CN1CCN(C(=O)Nc2ccccc2)CC1.O=C(O)C(=O)O | 12.3
49 | Cc1cc(C(=O)NCCc2ccc(Cl)cc2)no1 | 5.45
50 | CC(=O)OCC1OC(n2ccc(=O)[nH]c2=O)C(O)C1O (stereo not drawn) | 8.56
51 | CCCn1c(N)c(C(=O)CSc2nc3ccccc3s2)c(=O)[nH]c1=O | 6.76
52 | COc1ccc(S(=O)(=O)N(CC(=O)N/N=C/c2cccs2)c2cc(C)cc(C)c2)cc1OC | -8.06
53 | Cc1cc(C)c(NC(=O)COC(=O)c2nc3nccc(C)n3n2)c(Cl)c1 | 8.31
54 | COC(=O)CNc1nc(C2CC2)nc2c1nnn2Cc1ccccc1Cl | -0.759
55 | CCOc1ccc(CCNC(=O)c2cccc3c2C(=O)N(CCOC)C3)cc1OCC | 5.79
56 | CCCn1cnc2cc(NCc3cccs3)ccc21 | 7.23
57 | COC(=O)c1c(NC(=O)C(=O)N2CCCC2)sc2c1CC(C)(C)OC2 | 12.9
58 | Cc1cc(C(=O)OC(C)C(=O)Nc2cccc(S(=O)(=O)N3CCOCC3)c2)c(C)o1 (stereo not drawn) | -2.94
59 | Cc1ccc(C2=N/C(=C\c3ccc(OS(=O)(=O)c4ccc(C)cc4)cc3)C(=O)O2)cc1 | 19.4
60 | CC(=O)c1nn(-c2cccc(Br)c2)cc1C(=O)c1ccc(Cl)cc1 | 7.8
61 | O=C(Nc1cccc(-c2nnc(-c3ccccc3)o2)c1)C1CC1 | -6.62
62 | COc1cc(C)c(-c2cc(C(=O)O)c(C)o2)cc1C(C)C | 11.9
63 | COc1ccc(-n2c(SCC#N)nnc2-c2cccnc2)cc1 | 0.939
64 | CC(=O)Nc1cccc(N=NN2CCOCC2)c1 | 8.15
65 | CCCOc1ccccc1N/C(=N/c1nc(C)cc(C)n1)NC(=O)COc1ccc(OC)cc1 | 5.32
66 | Cc1ccc(C)c(NC(=O)CSc2nnc(CNC(=O)c3ccco3)n2C)c1 | 12.4
67 | Cc1ccc(NC(=O)c2cc(N3C(=O)C4CC=CCC4C3=O)ccc2N2CCOCC2)cc1Cl (stereo not drawn) | 11
68 | COc1ccc(NC(=O)CN(C)C(=O)c2ccc(=O)[nH]c2)cc1 | 9.78
69 | Cc1cc(C)n(CCOC(=O)C2C(C=C(Cl)Cl)C2(C)C)n1 (stereo not drawn) | -11.2

Row | Compound | hERG current change (%, negative = inhibition) at 1uM [%]
70 | C=CCn1cccc(C(=O)Nc2ccc(OC)c(Cl)c2)c1=O | 7.17
71 | COc1ccc(NC(=O)/C(C#N)=C\c2cc(OC)c(OCc3ccc(C(=O)O)cc3)cc2Br)cc1 | 8.27
72 | CCOC(=O)C1(CC)NC(c2cccc(F)c2)C2C(=O)N(CC)C(=O)C21 (stereo not drawn) | -2.3
73 | COc1ccc(Br)cc1CN1CCC(N2CCCC2)CC1.O=C(O)C(=O)O | 8.69
74 | O=C(Cc1ccc2c(c1)OCCO2)Nc1cccc(S(=O)(=O)N2CCOCC2)c1 | -1.42
75 | CCc1cn(S(=O)(=O)c2ccccc2OC)nc1N | 5.84
76 | COc1ccc(OC)c2sc(NC(=O)C3=COCCO3)nc12 | 10.4
77 | Cc1cc(=O)nc2c3ccccc3n(C(C)C(=O)Nc3c(F)c(F)c(F)c(F)c3F)n12 (stereo not drawn) | 10.7
78 | O=C(O)c1cccc(CN2C(=O)c3ccccc3C2=O)c1 | 6.59
79 | COC(=O)C1=CN(c2ccc(F)cc2)C=C(C(=O)OC)C1c1ccc(O)cc1 | -4.74
80 | O=C(C1CC(=O)N(C2CCCCC2)C1)N1CCC2(CC1)OCCO2 (stereo not drawn) | 14.1
81 | Cc1cc(F)ccc1S(=O)(=O)N1CCCOC1CNC(=O)C(=O)NCc1ccncc1 (stereo not drawn) | 8.37
82 | O=C(COc1ccc(S(=O)(=O)N2CCOCC2)cc1)NCCc1ccccc1 | 0.144
83 | O=S(=O)(Cc1ccccc1)Nc1ccc(Br)cn1 | 11.4
84 | CCOC(=O)c1c(C)n(C)c2ccc(OCC(O)Cn3nc(C)c(Br)c3C)cc12 (stereo not drawn) | 2.72
85 | Cc1cc(C)n(C(=O)Cn2nc([N+](=O)[O-])cc2C)n1 | 8.35
86 | CC(=O)c1cccc(NC(=O)c2ccc(N(Cc3ccccc3)S(C)(=O)=O)cc2)c1 | -1.9
87 | CN(C)S(=O)(=O)c1cccc(-c2cn3cc(Cl)ccc3n2)c1 | 3.54
88 | Oc1ccc(C(=S)N2CCCCCC2)cc1 | 9.52
89 | Cc1cccc(-n2nc(C(=O)c3ccco3)cc(-c3nc4ccccc4[nH]3)c2=N)c1 | -46.5
90 | Cc1cc(Nc2ccccc2C(=O)O)n(-c2ccc([N+](=O)[O-])cc2)n1 | 3.66
